Results published in publication PMC9574860, “Chemical Toolkit for PARK7: Potent, Selective, and High-Throughput” (Journal of Medicinal Chemistry, 2022).
The campaign covered roughly 7,900 compounds. About 400 (5.1%) showed an effect of 50% or more. The list shows a part of the results.

Each compound was assayed against Parkinson's disease protein 7 (PARK7/DJ1) (human, UniProt Q99497) (assay: primary screen, percent inhibition; read as competition with a fluorescent probe by fluorescence polarization; higher = more effect of the substance). Details: 100 µM.
In short: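 Covalent fragments at 100 μM final were incubated 2 h with 0.2 μM PARK7, then 20 nM probe JYQ-107 added for a further 2 h. Fluorescence polarization read at 480/520 nm; relative FP loss versus reference controls gave remaining enzyme activity.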

Chain of Parkinson's disease protein 7 (PARK7/DJ1) (Q99497 whole entry, looked up, the tested form may be a part): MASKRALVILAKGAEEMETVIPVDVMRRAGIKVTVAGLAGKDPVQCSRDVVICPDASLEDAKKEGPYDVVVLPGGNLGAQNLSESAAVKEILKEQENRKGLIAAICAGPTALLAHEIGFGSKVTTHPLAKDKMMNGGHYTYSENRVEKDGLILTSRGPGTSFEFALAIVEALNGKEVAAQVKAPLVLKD

Structure (SMILES) | Inhibition % [%]
N#CC(C(=O)Nc1ccccc1)=C1NCCCN1 | 6.27
COc1cc(C#N)ncn1 | 4.18
C=CC(=O)N1CCCC1c1ccc(CC)o1 (stereo not shown) | 15.5
O=C(CCl)Nc1ccc2c(c1)NC(=O)CO2 | 32.7
CC(C)(C)OC(=O)N1CCc2sc(B3OC(C)(C)C(C)(C)O3)cc2C1 | -1.84
O=C(Nc1ccccc1F)N1CCCCC1C1OCCO1 (stereo not shown) | -0.462
C=CC(=O)N[C@@H]1CC(=O)N(C)[C@H]1c1ccnn1C | 5.96
CCn1ncc(NC(=O)C(F)(F)F)c1B1OC(C)(C)C(C)(C)O1 | 49.6
Cl.NCC1CC2(CCC2)C(=O)O1 (stereo not shown) | 7.98
CC(C)NC(=O)C(C#N)=Cc1ccc(O)cc1 | 9.15
C=CC(=O)Nc1ccc(C(F)F)nc1 | 5.3
O=C1CCC(C(=O)NC2CCCCCCC2)O1 (stereo not shown) | 4.2
CNc1cccc(B2OC(C)(C)C(C)(C)O2)c1.Cl | 38.7
N#Cc1cc(Cl)nc(C2CC2)n1 | 4.67
C=CC(=O)N1CCC(c2ccc(C(F)(F)F)cc2)C1 (stereo not shown) | 11
O=C(NCCCS(=O)(=O)F)OCc1ccccc1 | 95.8
Cc1noc(C)c1-c1ccc(N2CCC2=O)cc1 | 8.35
O=S(=O)(F)Cc1ccccc1Cl | 7.95
CC1CCCC(C)N1C(=O)Cn1cnc(C#N)n1 (stereo not shown) | 3.14
Cc1ccc(CN(C)C(=O)CCl)o1 | 40.8
Cc1csc(CNc2ccnc(C#N)c2)n1 | 5.66
N#CCCN(Cc1ccco1)C(=O)CCl | 9.85
CNS(=O)(=O)c1cc(NC(=O)CCl)ccc1C | 6.77
CCn1ncnc1NS(=O)(=O)c1cccc(S(=O)(=O)F)c1 | 99
O=C(CCl)NCCc1ccc(Cl)cc1Cl | 23.1
O=c1c2ccccc2ncn1CCCl | 1.17
C=CC(=O)N1CCC(CNC(=O)c2cnn(C)c2)CC1 | 7.88

Structure (SMILES) | Inhibition % [%]
CS(=O)(=O)c1ccc(NC(=O)CCl)cc1 | 51.8
C=CC(=O)Nc1ccn(CC2CCOC2)n1 (stereo not shown) | 4.28
C=CC(=O)NC1CC2CCC(C2)C1 (stereo not shown) | 31
CN(C(=O)Cn1ccc(=O)[nH]c1=O)C1CC(C)(C)OC1=O (stereo not shown) | 3.6
CCOc1ccccc1Cn1cnc(C#N)n1 | 5.08
O=C(CN1CCSC1=O)N1CCN(c2ccccc2)CC1 | 5.93
Cc1cc(NC(=O)CCl)n(-c2ccccc2C)n1 | 13.5
CC1(C)OB(c2ccc(C(N)=O)s2)OC1(C)C | 3.67
Cc1cc(B2OC(C)(C)C(C)(C)O2)on1 | 27.5
C=CC(=O)N1CCC(F)(F)CC1C (stereo not shown) | 9.18
Cn1nc(B2OC(C)(C)C(C)(C)O2)c(Br)c1C(F)(F)F | -2.94
C=CC(=O)N1CCC(c2ccn(C)n2)CC1 | 1.04
C=CC(=O)N1CCC(c2ccccc2C)C1 (stereo not shown) | 1.59
COc1cccc(NC(=O)C=CC(=O)O)c1 | 9.53
CC1(C)OB(c2cccc(-c3nccs3)c2)OC1(C)C | 7.79
C=CC(=O)Nc1cnc(OC)cn1 | 2.86
C=CC(=O)N1CCN(Cc2ccc(OC)c(F)c2)CC1 | 6.4
COc1ccccc1CS | 1.46
N#CC(C(=O)N1CCCC1)=C1N=C(N)c2ccccc21 | 4.53
Cc1cc(C#N)nc(NC2CCCC(C(F)(F)F)C2)n1 (stereo not shown) | 5.89
C=CC(=O)Nc1ccc(N2CCCC2=O)c(OC)c1 | 13.1
CN(Cc1cccc(F)c1)C(=O)CCl | 44.5
Cc1ccc(C=CS(=O)(=O)Nc2cc(C)on2)cc1 | 6.27
N#CC(=Cc1csc(COc2ccccc2)n1)C(N)=O | 1.79
O=C(CCl)NCC1(c2ccccc2)CCOCC1 | 0.416
COc1ccccc1NC(=O)CCl | 9.22
CC(=O)NCCc1ccc(C(=O)CCl)cc1F | 81.3

Structure (SMILES) | Inhibition % [%]
OB(O)c1ccccc1OCC1CCOC1 (stereo not shown) | 5.05
C=CC(=O)N1CC(=O)N(CC2CC2)C1 | 7.15
CC1(C)OB(c2ccc(CN3CCS(=O)(=O)CC3)cc2)OC1(C)C | 1.69
COc1cc(C=C(C#N)C(N)=O)ccc1O | 21
COC(=O)c1ccc(Cl)c(NC(=O)CCl)c1 | 11
CC1CC(N(C)Cc2ccc(Cl)nc2)C(=O)O1 (stereo not shown) | 11.3
COc1ccc(C(=O)CCl)cc1 | 3.52
C=CC(=O)N1CCN(c2ccnc(C)n2)CC1 | 7.33
C=CC(=O)N(C)C1CC(c2ccccc2)C1 (stereo not shown) | 8.45
Cc1nc(S)c(C(N)=O)c(C)c1C | -0.0342
Cc1nc(C#N)n(CC(=O)N(C)Cc2cccs2)c1C | 3.54
C#CC(=O)N1C[C@H]2CNC[C@H]2C1.O=C(O)C(F)(F)F | 1.17
C=CC(=O)Nc1cnc2c(C)cccn12 | 8.53
CC1(C)OB(c2cc(Cl)cc(Cl)c2)OC1(C)C | 81
OB(O)c1ccc2ccccc2c1F | -0.918
N#CC=C(N)c1ccc(Cl)cc1 | 5.91
C=CCn1c(S)nc2cc(C(=O)NCCO)ccc2c1=O | 7.16
CC(C)(C)n1ncc2c1CCCC2NC(=O)CCl.Cl (stereo not shown) | 12.4
CC1(C)OB(c2cc(Cl)ccc2Cl)OC1(C)C | 7.59
C=CC(=O)NC1CCN(c2ccccc2C(F)(F)F)C1 (stereo not shown) | 5.11
C=CC(=O)N1CCC(C(O)c2nccn2C)CC1 (stereo not shown) | 9.1
O=C(CCCl)Nc1ccccc1Cl | 5.87
C=CC(=O)NC1CCC(NC(C)=O)CC1 (stereo not shown) | 4.84
O=C(CCl)N(c1ccccc1)C1CCCCC1 | 2.98
CCC1(C(=O)Nc2cccc(S(=O)(=O)F)c2)CCC1 | 93.8
